assay: soluble on expression in E. coli; label from the status in PepcDB or PDB records

| Substance | soluble on expression in E. coli |
| --- | --- |
| AHHHHHHGSAKLAVIRIRGRVNVKRPVRDTLAMLRLHRVNHCVIVDDTPSYLGMLQKAKDYITWGEINAETLAKLIRKRGRLIGNKPVTDEYVKEKLGMTIEEFAQKVVNGEMSLKDLPNLKPVFRLHPPRGGFRGSKKRSFKEGGALGYRGEKINELIERML | soluble |
| AHHHHHHGSPVDAWIREEVEIPEGVEVTVEGYKVKVKGPKGELEREFFWPGIQIFTEDGNVVIYKDFPRRKDVAIARTFAAHIRNMIKGVTEGFTYKLKVVYSHFPISVKVQGDEVIIENFLGEKAPRKAKILPGVTVKVRGQEIIVEGIDKEAVGQTAANIEQATRITKWDRRIFQDGIYIVEKAGKPITF | not soluble |
| AIAPKSKRDKKISLTKTTKKGLEAKQNLIEELRKCADIYRYVFVFSVENMRNNKLKDIRTAWRHSRFFFGKNKVMMIALGKGPTDEYKDNLHKLSRFLRGEVGVLFTNKTKDEVQEYFGNFKEVDYARAGNTASMAVTLDEGPLDQFPHSMEPQLRQLGLPTALKKGAVTLIKDFEVCKEGDTLTPEQARILKLFGFEMAEFKLSIKCMWNSESGEFEKLTDGDDDDETKEAEDEDSEGEEGSE | soluble |
| DIVMTQSPDSLAVSLGERATINCKSSQSVLYSSNSKNYLAWYQQKPGQPPKLLIYWASTRESGVPDRFSGSGSGTDFTLTISSLQAEDVAVYYCAQYYSTPYSFGQGTKLEIKR | soluble |
| GMSTRLKIVTIHQEPFVYVKPTMSDGTCKEEFTVNGDPVKKVICTGPNDTSPGSPRHTVPQCCYGFCIDLLIKLARTMNFTYEVHLVADGKFGTQERVNNSNKKEWNGMMGELLSGQADMIVAPLTINNERAQYIEFSKPFKYQGLTILVKKGTRITGINDPRLRNPSDKFIYATVKQSSVDIYFRRQVELSTMYRHMEKHNYESAAEAIQAVRDNKLHAFIWDSAVLEFEASQKCDLVTTGELFFRSGFGIGMRKDSPWKQNVSLSILKSHENGFMEDLDKTWVRYQECDS | soluble |
| MDAMSKASYVKFEVPQDLADKVLEAVRKAKESGKIKKGTNETTKAVERGQAKLVIIAEDVQPEEIVAHLPLLCDEKKIPYVYVSSKKALGEACGLQVATASAAILEPGEAKDLVDEIIKRVNEIKGKTSS | soluble |
| MDGSATPGPGQAHLKSNSMIYICGECHAENEIKPKDAIRCRECGYRILYKKRCRKLMVYDAR | soluble |
| MGKDYYQTLGLARGASDEEIKRAYRRQALRYHPDKNKEPGAEEKFKEIAEAYDVLSDPRKREIFDRYGEEGLKGSGPSGGSGGGANGTSFSYTFHGDPHAMFAEFFGGRNPFDTFFGQRNGEEGMDIDDPFSGFPMGMGGFTNVNFGRSRSAQEPARKKQ[gap - about 150 residues]PERIPQTSRTVLEQVLPILEHHHHHH | soluble |
| MGSDKIHHHHHHMITIKKGLDLPIAGKPAQVIHSGNAVNQVAILGEEYVGMRPSMKVREGDVVKKGQVLFEDKKNPGVIFTAPASGTITAINRGEKRVLQSVVINVEGDEKITFAKYSTEQLNTLSSEQVKQNLIESGLWTALRTRPFSKVPSIESEASSIFVNAMDTNPLAADPSVVLKEYSQDFTNGLTVLSRLFPSKPLHLCKAGDSNIPTADLENLQIHDFTGVHPAGLVGTHIHFIDPVGIQKTVWHINYQDVIAVGKLFTTGELYSERVISLAGPQVKEPRLVRTTIGANLSQLTQNELSAGKNRVISGSVLCGQIAKDSHDYLGRYALQVSVIAEGNEKEFFGWIMPQANKYSVTRTVLGHFSKKLFNFTTSENGGERAMVPIGSYERVMPLDILPTLLLRDLIVGDTDGAQELGCLELDEEDLALCSFVCPGKYEYGSILRQVLDKIEKEG | not soluble |
| MISGILASPGIAIGKALLLQEDEIVLNTNTISDDQVEAEVERFYTARDKSSAQLEVIKQKALETFGEEKEAIFEGHIMLLEDEELEEEILALIKKEKMSADNAIHTVIEEQATALESLDDEYLKERATDIRDIGTRFVKNALGMHIVSLSEIDQEVVLVAYDLTPSETAQINLNYVLGFACDIGGRTSHTSIMARSLELPAIVGTNDITKKVKNGDTLILDAMNNKIIVNPTQAQIEEAKAVKAAFLAEKEELAKLKDLPAETLDGHRVEVCGNIGTVKDCDGIIRNGGEGVGLYRTEFLFMDRDALPTEEEQYQAYKEVAEAMNGQAVIIRTMDIGGDKDLPYMDLPKEMNPFLGWRAVRISLDRREILRDQLRGILRASAHGKLRVMFPMIISVEEIRELKNAIEEYKAELRTEGHAFDENIEIGVMVETPAAAAIAHHLAKEVSFFSIGTNDLTQYTLAVDRGNEMISHLYNPLSPAVLTVIKQVIDASHAEGKWTGMCGELAGDERATLLLLGMGLDEFSMSGISIPKVKKVIRNANYAEIKAMAEEALALPTAAEIEACVDKFIAAKA | not soluble |
| MKDIDTLISNNALWSKMLVEEDPGFFEKLAQAQKPRFLWIGCSDSRVPAERLTGLEPGELFVHRNVANLVIHTDLNCLSVVQYAVDVLEVEHIIICGHYGCGGVQAAVENPELGLINNWLLHIRDIWFKHSSLLGEMPQERRLDTLCELNVMEQVYNLGHSTIMQSAWKRGQKVTIHGWAYGIHDGLLRDLDVTATNRETLEQRYRHGISNLKLKHANHK | soluble |
| MPRSLKKGVFVDDHLLEKVLELNAKGEKRLIKTWSRRSTIVPEMVGHTIAVYNGKQHVPVYITENMVGHKLGEFAPTRTYRGHGKEAKATKKK | soluble |
| MSLGSDVRDLNALLPAVPSLGGGGGCALPVSGAAQWAPVLDFAPPGASAYGSLGGPAPPPAPPPPPPPPPHSFIKQEPSWGGAEPHEEQCLSAFTVHFSGQFTGTAGACRYGPFGPPPPSQASSGQARMFPNAPYLPSCLESQPAIRNQGYSTVTFDGTPSYGHTPSHHAAQFPNHSFKHEDPMGQQGSLGEQQYSVPPPVYGCHTPTDSCTGSQALLLRTPYSSDNLYQMTSQLECMTWNQMNLGATLKGHSTGYESDNHTTPILCGAQYRIHTHGVFRGIQDVRRVPGVAPTLVRSASETSEKRPFMCAYPGCNKRYFKLSHLQMHSRKHTGEKPYQCDFKDCERRFSRSDQLKRHQRRHTGVKPFQCKTCQRKFSRSDHLKTHTRTHTGEKPFSCRWPSCQKKFARSDELVRHHNMHQRNMTKLQLALEGHHHHHH | not soluble |
| MSTKEKLISHVMKEEPVGSRSKVTVVGVGMVGMASAISILLKDLCDELAMVDVMEDKLKGEVMDLQHGSLFLKTKIVGDKDYSVTANSKVVVVTAGARQQEGESRLNLVQRNVNIFKFIIPNIVKYSPNCILMVVSNPVDILTYVAWKLSGFPRHRVIGSGTNLDSARFRHLIGEKLHLHPSSCHAWIVGEHGDSSVPVWSGVNVAGVSLQGLNPQMGTEGDGENWKAIHKEVVDGAYEVIKLKGYTSWAIGMSVADLVESIIKNMHKVHPVSTLVQGMHGVKDEVFLSVPCVLGNSGLTDVIHMTLKAEEEKQLQKSAETLWGVQKELTL | soluble |
| MVRFTGLSLKQTQAIEVLKGHISLPDVEVAVTQSDQASISIEGEEGHYQLTYRKPHQLYRALSLLVTVLAEADKVEIEEQAAYEDLAYMVDCSRNAVLNVASAKQMIEILALMGYSTFELYMEDTYQIEGQPYFGYFRGAYSAEELQEIEAYAQQFDVTFVPCIQTLAHLSAFVKWGVKEVQELRDVEDILLIGEEKVYDLIDGMFATLSKLKTRKVNIGMDEAHLVGLGRYLILNGVVDRSLLMCQHLERVLDIADKYGFHCQMWSDMFFKLMSADGQYDRDVEIPEETRVYLDRLKDRVTLVYWDYYQDSEEKYNRNFRNHHKISHDLAFAGGAWKWIGFTPHNHFSRLVAIEANKACRANQIKEVIVTGWGDNGGETAQFSILPSLQIWAELSYRNDLDGLSAHFKTNTGLTVEDFMQIDLANLLPDLPGNLSGINPNRYVFYQDILCPILDQHMTPEQDKPHFAQAAETLANIKEKAGNYAYLFETQAQLNAILSSKVDVGRRIRQAYQADDKESLQQIARQELPELRSQIEDFHALFSHQWLKENKVFGLDTVDIRMGGLLQRIKRAESRIEVYLAGQLDRIDELEVEILPFTDFYADKDFAATTANQWHTIATASTIYTT | soluble |
| QVQLQQSGAEVKKPGSSVKVSCKASGGTFSSYTISWVRQAPGQGLEWMGGITPILGIANYAQKFQGRVTITTDESTSTAYMELSSLRSEDTAVYYCARDTVMGGMDVWGQGTTVTVSSASTKGPSVFPLAPSSKSTSGGTSALGCLVKDYFPEPVTVSWNSGALTSGVHTFPAVLQSSGLYSLSSVVTVPSSSLGTQTYICNVNHKPSNTKVDKKVEPKSCDKTSPLFVHHHHHHGDYKDDDDKG | soluble |
| RPDFCLEPPYAGACRAAAARYFYNAKAGLCQTFAYGACAAKRNNFKSAEDCLRTCGGA | soluble |
| VVPWSPPQSNWNPWTSSNIDEGPLAFATPEQISMDLKNELMYQLEQDHDLQAILQERELLPVKKFESEILEAISQNSVVIIRGATGCGKTTQVPQFILDDFIQNDRAAECNIVVTQPRRISAVSVAERVAFERGEEPGKSCGYSVRFESILPRPHASIMFCTVGVLLRKLEAGIRGISHVIVDEIHERDINTDFLLVVLRDVVQAYPEVRIVLMSATIDTSMFCEYFFNCPIIEV | soluble |
